{
  "source": "the RNAGym collection of RNA variant scans (doi:10.7554/elife.90254)",
  "parents": {"B1": {"name": "LINE1-mini (parent)", "chain": "GGCAGAGCUCAACACAGCGUGGCAAAGUGGCUGUGGCUAGACUGCC"}},
  "note": "The source gives no read counts; variants with many changes may rest on few reads.",
  "data": [
    {"variants_of": "B1", "assay": "self-cleavage, relative activity (ratio to wild type); higher = more cleavage; in vitro, sequencing; the parent is a self-cleaving ribozyme", "values": [
      {"variant": "GGCAGAGCUCUGCACAGCGUGGCAAAGUGGCUGUGGCUAGACUGCG", "note": "[A11U A12G C46G]", "self-cleavage": 0.05},
      {"variant": "GGCAGAGCUCUAGACAGCGUGGCUAAGUGGCUCUGGCUAAAUUGCC", "note": "[A11U C13G A24U G33C G40A C42U]", "self-cleavage": 0},
      {"variant": "GGCAGAGCUCUAAAUAGCGUGGCAAAGUGGCUGUGUCUAGUGUGCC", "note": "[A11U C13A C15U G36U A41U C42G]", "self-cleavage": 0.01},
      {"variant": "GGCAGAGCUCGACACAGCGAGACAAAGUGGCUGUGGCUAGACUGCC", "note": "[A11G U20A G22A]", "self-cleavage": 0.01},
      {"variant": "GGCAGAGCUCGACACAGCGUGGCAAAGUGCCUGUGGCAAGACUGAC", "note": "[A11G G30C U38A C45A]", "self-cleavage": 0.01},
      {"variant": "GGCAGAGCUCUACACAACCUGGCAAAGUGGUUGUUGCUAGACUGCC", "note": "[A11U G17A G19C C31U G35U]", "self-cleavage": 0.02},
      {"variant": "GGCAGAGCUCUACACAGCGGGGGAAAUUGGCUGUGGCUAGAGUACC", "note": "[A11U U20G C23G G27U C42G G44A]", "self-cleavage": 0.01},
      {"variant": "GGCAGAGCUCUACACAGGGUGGCAAACUGGCUGUGGCUAGACUGCC", "note": "[A11U C18G G27C]", "self-cleavage": 0.02},
      {"variant": "GGCAGAGCUCUACACAGGGUGGCAAAAUGGCUGUGGCUAGACUGCC", "note": "[A11U C18G G27A]", "self-cleavage": 0.05},
      {"variant": "GGCAGAGCUCGACACAGCGGGGCAAAGUGGGUGUGGGCAGGCUGCC", "note": "[A11G U20G C31G C37G U38C A41G]", "self-cleavage": 0.04},
      {"variant": "GGCAGAGCUCUACCCAGCGCGGCAAAGUGGCUGUGGCUAGACUGCC", "note": "[A11U A14C U20C]", "self-cleavage": 0.03},
      {"variant": "GGCAGAGCUCGACACAGCGUGGCAAAGUUGCUGUGGCUAGACCGCC", "note": "[A11G G29U U43C]", "self-cleavage": 0},
      {"variant": "GGCAGAGCUCUACACACCGUGGCAAAGUGGCUGUGGCGAGACUGCC", "note": "[A11U G17C U38G]", "self-cleavage": 0},
      {"variant": "GGCAGAGCUCUUCACAGCGUGGCAAAGUGGCUGUGCCUACACUGCA", "note": "[A11U A12U G36C G40C C46A]", "self-cleavage": 0},
      {"variant": "GGCAGAGCUCUGCACAGCGUGGGAAAGAGGCUGUGGCUAGACUGCC", "note": "[A11U A12G C23G U28A]", "self-cleavage": 0.01},
      {"variant": "GGCAGAGCUCUACACGCAGUGGCAAACUGGCUGUGGCUAGACUGGG", "note": "[A11U A16G G17C C18A G27C C45G C46G]", "self-cleavage": 0.01},
      {"variant": "GGCAGAGCUCUACACACCGUGGCAAAGUAGCUGUGGCUAGACUGCC", "note": "[A11U G17C G29A]", "self-cleavage": 0.02},
      {"variant": "GGCAGAGCUCUACACAGCGUUGCAUAGUGGCUGUGGCUAGACUGCC", "note": "[A11U G21U A25U]", "self-cleavage": 0.1},
      {"variant": "GGCAGAGCUCUACACAGCGCGGCAAAGUGGCUCUGGCUAGACUGCC", "note": "[A11U U20C G33C]", "self-cleavage": 0},
      {"variant": "GGCAGAGCUCUACAUAGCGUGGCAAAGUGGCUGUCGCUAGAUUGCC", "note": "[A11U C15U G35C C42U]", "self-cleavage": 0.02},
      {"variant": "GGCAGAGCUCUACAAAGCGUGCCAAAGUGGCUGUUGCUAACCUGCC", "note": "[A11U C15A G22C G35U G40A A41C]", "self-cleavage": 0},
      {"variant": "GGCAGAGCUCUAUACAGCGUGGCAACGUUGCUGUGGCUAGACUGCC", "note": "[A11U C13U A26C G29U]", "self-cleavage": 0.05},
      {"variant": "GGCAGAGCUCUACACAGUGUGGCAAAGCGGCUGUGGCUAGACUGCC", "note": "[A11U C18U U28C]", "self-cleavage": 0.04},
      {"variant": "GGCAGAGCUCUACACAGCGUGACAAAGUGGCUGUGGCUAGGGUGCC", "note": "[A11U G22A A41G C42G]", "self-cleavage": 0.02},
      {"variant": "GGCAGAGCUCUUCCCAGCGUGGCAAAGUUGCUGUGGCUAGACUGCC", "note": "[A11U A12U A14C G29U]", "self-cleavage": 0.03},
      {"variant": "GGCAGAGCUCUAAACAGCGUGGCAAAAUAGCUGUGGCUAGACUGCC", "note": "[A11U C13A G27A G29A]", "self-cleavage": 0.01},
      {"variant": "GGCAGAGCUCGACACAGCGUGGCAAAGUUGCUGUGGCUGAACUGCC", "note": "[A11G G29U A39G G40A]", "self-cleavage": 0.04},
      {"variant": "GGCAGAGCUCUACACAGCGUAGCAAAGUGGCUGUGGCUAGAUUGCC", "note": "[A11U G21A C42U]", "self-cleavage": 0.05},
      {"variant": "GGCAGAGCUCUGCACAGCGUGGCAAAGUGCCUGUGGCUAGACAGCC", "note": "[A11U A12G G30C U43A]", "self-cleavage": 0.01},
      {"variant": "GGCAGAGCUCUACACACCGUGGCAAAGUGUCUGUGGCUAGACUGCC", "note": "[A11U G17C G30U]", "self-cleavage": 0.01},
      {"variant": "GGCAGAGCUCUUCACAGCGUGGCAAAGUGGGUGUGGCUAGACUGCC", "note": "[A11U A12U C31G]", "self-cleavage": 0.02},
      {"variant": "GGCAGAGCUCGACACAGCGUGGCAAAGUGGCGGUGUCUAGACUGCC", "note": "[A11G U32G G36U]", "self-cleavage": 0.03},
      {"variant": "GGCAGAGCUCUAAGCAGCGUGGCAAAGUGGCUGUGUCUAGACUGCC", "note": "[A11U C13A A14G G36U]", "self-cleavage": 0.05},
      {"variant": "GGCAGAGCUCUACACAGCGUGGCAAAAUGGCUGUGGCUAUACUGCC", "note": "[A11U G27A G40U]", "self-cleavage": 0.02},
      {"variant": "GGCAGAGCUCUUAACAGCGUUACAAAGUGGCUGUGGCUAGACUGCC", "note": "[A11U A12U C13A G21U G22A]", "self-cleavage": 0.04},
      {"variant": "GGCAGAGCUCGACACAGCGUGGCAAACUUGCUGUGGCUAGACUGCC", "note": "[A11G G27C G29U]", "self-cleavage": 0.01},
      {"variant": "GGCAGAGCUCUAUUCAGCGUGGGAAAGUAGCUGUGGUUAGACUGCC", "note": "[A11U C13U A14U C23G G29A C37U]", "self-cleavage": 0.01},
      {"variant": "GGCAGAGCUCUACACAGCGUGGCAAAGUAGCUGUUGCUAGACUGCC", "note": "[A11U G29A G35U]", "self-cleavage": 0.01},
      {"variant": "GGCAGAGCUCUACACAGCUUGGCCAAGUGGCUGUGGCUAGACUGCC", "note": "[A11U G19U A24C]", "self-cleavage": 0.07},
      {"variant": "GGCAGAGCUCGACACAGCGGGGCAAAGAUGCUGUGGCUAGACUGCC", "note": "[A11G U20G U28A G29U]", "self-cleavage": 0.01},
      {"variant": "GGCAGAGCUCUACACUACGGGGCAAACUGGCUGUGGCUUGACUGCC", "note": "[A11U A16U G17A U20G G27C A39U]", "self-cleavage": 0.01},
      {"variant": "GGCAGAGCUCUACACAGCGUGGCAAAGUAGCCGUGGCUAGACUGCC", "note": "[A11U G29A U32C]", "self-cleavage": 0.06},
      {"variant": "GGCAGAGCUCUACACAGCGCGCCAAAUUUACUGUGGCUAGACUUCC", "note": "[A11U U20C G22C G27U G29U G30A G44U]", "self-cleavage": 0.01},
      {"variant": "GGCAGAGCUCUACACAGCGUGGCAUAGUGGCUGUGGUUAGACUGCC", "note": "[A11U A25U C37U]", "self-cleavage": 0.02},
      {"variant": "GGCAGAGCUCUACACUGCGUGGCAAAGUGGCUGGGACUAGACUGCC", "note": "[A11U A16U U34G G36A]", "self-cleavage": 0.01},
      {"variant": "GGCAGAGCUCUACACAAUGUGGCAAAGUGGCUGUGGCUAGACUGCG", "note": "[A11U G17A C18U C46G]", "self-cleavage": 0.03},
      {"variant": "GGCAGAGCUCUACACAGCUUUGCAAAGAGCCUGCGGCUAGACUGCC", "note": "[A11U G19U G21U U28A G30C U34C]", "self-cleavage": 0},
      {"variant": "GGCAGAGCUCGACACAGCGUGGCAAAGUAGCGGUGGCUAGACUGCC", "note": "[A11G G29A U32G]", "self-cleavage": 0.03},
      {"variant": "GGCAGAGCUCUACACAUCGUGGAAAAGUGGCUGUGGCUAGACUGCC", "note": "[A11U G17U C23A]", "self-cleavage": 0.18},
      {"variant": "GGCAGAGCUCUACACAGGGUGGCAAAGUGGCUGUAGCUAGAAUGCC", "note": "[A11U C18G G35A C42A]", "self-cleavage": 0.01},
      {"variant": "GGCAGAGCUCUACACAGCAUCGCAAAGUGGCUGUGGCUAUACUGCC", "note": "[A11U G19A G21C G40U]", "self-cleavage": 0.02},
      {"variant": "GGCAGAGCUCUACACAGCGCGGCAAAGUGGCUGUGGCUAGACUACC", "note": "[A11U U20C G44A]", "self-cleavage": 0.01},
      {"variant": "GGCAGAGCUCGACACACCGUGGCAAAGUGGCUGUGCCUAGACUGCC", "note": "[A11G G17C G36C]", "self-cleavage": 0.01},
      {"variant": "GGCAGAGCUCUACACAGCGUGGCGUAGUGGCUGUGGCUACACUGCC", "note": "[A11U A24G A25U G40C]", "self-cleavage": 0.01},
      {"variant": "GGCAGAGCUCUACACAGCGUGGCAAAGUGGCUGUGCCUAGACUGCU", "note": "[A11U G36C C46U]", "self-cleavage": 0.03},
      {"variant": "GGCAGAGCUCUACACAGCGUGGCAAAUUGGCUGUGGCUAAACUGCC", "note": "[A11U G27U G40A]", "self-cleavage": 0.04}
    ]}
  ]
}
